The list shows a part of the results. Values were computed here from the reads of four pooled replicates and scatter widely.

This test deals with T1, Pho4 (S. cerevisiae) (UniProt P07270).
T1 sequence: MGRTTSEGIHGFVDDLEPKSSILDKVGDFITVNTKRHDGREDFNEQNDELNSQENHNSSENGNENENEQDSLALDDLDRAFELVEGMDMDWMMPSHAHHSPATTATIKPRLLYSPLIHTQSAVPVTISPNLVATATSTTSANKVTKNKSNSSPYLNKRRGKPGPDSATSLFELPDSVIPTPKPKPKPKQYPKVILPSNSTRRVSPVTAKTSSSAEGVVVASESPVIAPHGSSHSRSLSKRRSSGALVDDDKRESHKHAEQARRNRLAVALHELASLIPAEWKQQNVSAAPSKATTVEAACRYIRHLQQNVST
In words: relative binding free energy (BET-seq); higher = weaker binding. Particulars: reference: library average.
Regarding GGTGCCACGTGCGTAG, the “relative binding free energy” value is -0.01 kcal/mol.
In the case of TTTATCACGTGGAGTC, the “relative binding free energy” value stood at 0.2 kcal/mol.
In the case of GTCTTCACGTGGGGTG, the “relative binding free energy” value turned out to be 0.21 kcal/mol.
TTAGACACGTGTGCAG: the “relative binding free energy” value is -0.02 kcal/mol.
Regarding CTGGGCACGTGGTGGG, the “relative binding free energy” value is -0.12 kcal/mol.
Consider AAGTTCACGTGATAGT, for which the “relative binding free energy” value is 0.43 kcal/mol.
In the case of CGTATCACGTGGGGAG, the “relative binding free energy” value is -0.13 kcal/mol.
In the case of GTTGACACGTGTGCGT, the “relative binding free energy” value worked out at 0.13 kcal/mol.
As for TGTTACACGTGTGGTA, the “relative binding free energy” value is 0.08 kcal/mol.
As to ATAATCACGTGATGTG, the “relative binding free energy” value was 0.22 kcal/mol.
AGTTGCACGTGGAACT: the “relative binding free energy” value amounted to 0.12 kcal/mol.
For GTGATCACGTGTGACG the value was 0.4 kcal/mol; for GCGAGCACGTGGTGGA, -0.07 kcal/mol; for TTAACCACGTGTTGTA, 0.02 kcal/mol.
For the sequence AATGGCACGTGGAATG, the “relative binding free energy” value came out at 0.09 kcal/mol.
On to AGAGTCACGTGAGATT, for which the “relative binding free energy” value amounted to 0.44 kcal/mol.
Consider TTTGTCACGTGTTAAG, for which the “relative binding free energy” value stood at 0.17 kcal/mol.
Regarding ATGGTCACGTGATAAA, the “relative binding free energy” value came to 0.24 kcal/mol.
Consider CTTCTCACGTGGTGGT, for which the “relative binding free energy” value is 0.17 kcal/mol.
TTATACACGTGTTTAA: the “relative binding free energy” value was -0.1 kcal/mol.
TAGGTCACGTGTACGG: the “relative binding free energy” value came out at 0 kcal/mol.
Consider ATGTTCACGTGTGTGT, for which the “relative binding free energy” value came to 0.31 kcal/mol.
ATAAACACGTGTCGTG: the “relative binding free energy” value worked out at 0.06 kcal/mol.
For GATTTCACGTGAGTTT the value was 0.49 kcal/mol; for GCGGTCACGTGGGTCG, 0.03 kcal/mol.
Next, GAAGACACGTGGTGTT: -0.05 kcal/mol; AGAAACACGTGAGTGG: 0.23 kcal/mol.
Turning to GTTGTCACGTGCATAG, the “relative binding free energy” value is 0.27 kcal/mol.
Turning to ATCAGCACGTGCGGTG, the “relative binding free energy” value is -0.12 kcal/mol.
TATTCCACGTGATGGG: the “relative binding free energy” value came out at 0.06 kcal/mol.
For TAAGTCACGTGTTGGA the value was 0.14 kcal/mol; for GTTATCACGTGAGGGA, 0.19 kcal/mol; for TCTGGCACGTGTGCGA, 0.03 kcal/mol.
In the case of AGTAACACGTGGGTTA, the “relative binding free energy” value was -0.12 kcal/mol.
Take AGTATCACGTGAACGG: the “relative binding free energy” value amounted to 0.25 kcal/mol.
Regarding TGTGTCACGTGAGGGC, the “relative binding free energy” value was found to be 0.3 kcal/mol.
For ACTGACACGTGTGTTG the value was -0.04 kcal/mol; for AGGGGCACGTGAGGCG, 0.07 kcal/mol; for TAGGTCACGTGGGATC, 0.07 kcal/mol.
For TGTGCCACGTGGGCTA the value was -0.35 kcal/mol; for GTTAGCACGTGGTGCA, -0.04 kcal/mol; for TAGCGCACGTGGGGAG, -0.2 kcal/mol.
With CGTAGCACGTGGGGTA, the “relative binding free energy” value is -0.23 kcal/mol.
Next, CCGGTCACGTGGGTAA: 0.05 kcal/mol; TAGAGCACGTGGGTAG: -0.17 kcal/mol; GGTTCCACGTGTCGGG: 0.16 kcal/mol.
With AGGTTCACGTGCTGGC, the “relative binding free energy” value was 0.24 kcal/mol.
GATTACACGTGTTTTA: the “relative binding free energy” value stood at 0.1 kcal/mol.
In the case of AGGGTCACGTGTGGGT, the “relative binding free energy” value stood at 0.13 kcal/mol.
Consider TGTTACACGTGTGACG, for which the “relative binding free energy” value was found to be 0.09 kcal/mol.
Next, CTTAACACGTGATGTG: 0.22 kcal/mol; CATTTCACGTGGGTTT: 0.21 kcal/mol; TTATGCACGTGCGATA: 0.01 kcal/mol.
For TGCAACACGTGTATGG, the “relative binding free energy” value is -0.06 kcal/mol.
For CGTGGCACGTGGGGAC the value was -0.32 kcal/mol.
On to AGTGTCACGTGATAGT, for which the “relative binding free energy” value was 0.34 kcal/mol.
As to CGTGTCACGTGGAGTG, the “relative binding free energy” value was 0.1 kcal/mol.
Regarding AGGGGCACGTGCCGTT, the “relative binding free energy” value is -0.19 kcal/mol.
For TATAGCACGTGATTGT, the “relative binding free energy” value amounted to 0.22 kcal/mol.
Take TTGCACACGTGAGGTT: the “relative binding free energy” value was 0.16 kcal/mol.
Consider TCATGCACGTGTGAGT, for which the “relative binding free energy” value is -0.05 kcal/mol.
As to AACTTCACGTGGGGTA, the “relative binding free energy” value is 0.01 kcal/mol.
With ATAATCACGTGAAGGT, the “relative binding free energy” value turned out to be 0.28 kcal/mol.
As for GTACGCACGTGTGGAG, the “relative binding free energy” value was -0.11 kcal/mol.
TGGACCACGTGGTGTA: the “relative binding free energy” value is -0.17 kcal/mol.
Take AGATGCACGTGACTGT: the “relative binding free energy” value turned out to be 0.23 kcal/mol.
Regarding GGGAGCACGTGTATTC, the “relative binding free energy” value was determined as 0.13 kcal/mol.
On to ATTATCACGTGTAATA, for which the “relative binding free energy” value came out at 0.18 kcal/mol.
As for AGGTTCACGTGCTGTA, the “relative binding free energy” value came to 0.15 kcal/mol.
Regarding TATTGCACGTGACGTT, the “relative binding free energy” value is -0.01 kcal/mol.
For CTTGTCACGTGGTGTA the value was -0.02 kcal/mol; for TTGGGCACGTGGTGAA, -0.11 kcal/mol; for GGGGGCACGTGAGTGT, 0.26 kcal/mol.
For CTTTTCACGTGGTTGC the value was 0.35 kcal/mol.
Next, ATTGGCACGTGCTTGG: -0.08 kcal/mol; TTGAACACGTGTGTCT: 0.04 kcal/mol; GTGACCACGTGGTATG: -0.11 kcal/mol.
Turning to ATATGCACGTGCGGTA, the “relative binding free energy” value was -0.04 kcal/mol.
Take ACGTGCACGTGGATTT: the “relative binding free energy” value was -0.05 kcal/mol.
Turning to AGGGCCACGTGACGTG, the “relative binding free energy” value was -0.08 kcal/mol.
In the case of TTTGGCACGTGAGAAT, the “relative binding free energy” value was 0.08 kcal/mol.
With CGTAACACGTGGTGAA, the “relative binding free energy” value amounted to 0.05 kcal/mol.
For CTTGGCACGTGGCATG the value was -0.25 kcal/mol; for GGAATCACGTGGGTAG, 0.06 kcal/mol.
Regarding TACTGCACGTGGTTGC, the “relative binding free energy” value is -0.04 kcal/mol.
As for TAAGGCACGTGAGGCA, the “relative binding free energy” value stood at 0.17 kcal/mol.
Next, TGGCACACGTGAAAGT: 0.24 kcal/mol; TTTGTCACGTGGCTGG: 0.15 kcal/mol.
Regarding CTTTGCACGTGGCGGC, the “relative binding free energy” value is -0.02 kcal/mol.
As to AGAGTCACGTGCTGGA, the “relative binding free energy” value came to 0.08 kcal/mol.
For GTTATCACGTGCGTCT the value was 0.12 kcal/mol; for GTTGGCACGTGTATTT, 0.15 kcal/mol; for CGTGACACGTGGGTGT, -0.24 kcal/mol.
Next, TATGTCACGTGAGCTG: 0.16 kcal/mol.
In the case of TGGTTCACGTGCCTGG, the “relative binding free energy” value was 0.19 kcal/mol.
On to TTATGCACGTGATAAT, for which the “relative binding free energy” value is -0.08 kcal/mol.
As to ATGGTCACGTGTTCGA, the “relative binding free energy” value is 0.11 kcal/mol.
Next, TTAGACACGTGGTGTC: -0.11 kcal/mol.
Next, TGGCGCACGTGGGTAA: -0.18 kcal/mol.
For TTGGACACGTGGGTGG, the “relative binding free energy” value is -0.04 kcal/mol.
GTGGCCACGTGTTGTC: the “relative binding free energy” value worked out at 0.09 kcal/mol.
For TGTCGCACGTGTTATA, the “relative binding free energy” value is -0.09 kcal/mol.
For the sequence CGGGCCACGTGCGGGT, the “relative binding free energy” value was -0.23 kcal/mol.
For TCTGGCACGTGTTTTA, the “relative binding free energy” value was -0.06 kcal/mol.
For the sequence ATTCTCACGTGGTTGG, the “relative binding free energy” value came out at 0.11 kcal/mol.
With TAAAGCACGTGATTAG, the “relative binding free energy” value came to 0.04 kcal/mol.
In the case of AGATTCACGTGGGCAG, the “relative binding free energy” value stood at 0.14 kcal/mol.
In the case of TGATGCACGTGGGCCG, the “relative binding free energy” value was -0.15 kcal/mol.
For the sequence CGTGTCACGTGAGTCA, the “relative binding free energy” value was 0.24 kcal/mol.
As for GGGCTCACGTGCGAGG, the “relative binding free energy” value came out at 0.18 kcal/mol.
For TTAGGCACGTGCCGTG the value was -0.26 kcal/mol; for TAGTACACGTGATGAG, 0.17 kcal/mol; for GTCTGCACGTGTGCTG, 0.1 kcal/mol.
Next, AGGTACACGTGGATAT: -0.02 kcal/mol; GGAGGCACGTGCTTAG: -0.16 kcal/mol; TGGCTCACGTGCCGGT: 0.22 kcal/mol.
As to ATGGACACGTGGCGGG, the “relative binding free energy” value came out at 0.06 kcal/mol.
Turning to GTTCTCACGTGTAGTG, the “relative binding free energy” value is 0.16 kcal/mol.
Next, GGGGGCACGTGCGCAT: -0.22 kcal/mol; GGACGCACGTGATGTG: 0.18 kcal/mol.
Next, GGACACACGTGGTGTA: 0.06 kcal/mol.
For GGGAGCACGTGATTCG, the “relative binding free energy” value amounted to 0.09 kcal/mol.
Regarding GTGACCACGTGGTAGT, the “relative binding free energy” value is -0.08 kcal/mol.
Take TGGGTCACGTGTCTTA: the “relative binding free energy” value is 0.06 kcal/mol.
With TTGAGCACGTGGTAGT, the “relative binding free energy” value was -0.16 kcal/mol.
For CGGTACACGTGGTAAT, the “relative binding free energy” value was 0.12 kcal/mol.
Take ATGGGCACGTGGAAAA: the “relative binding free energy” value was found to be 0.04 kcal/mol.
As for TGCTGCACGTGGGGCT, the “relative binding free energy” value is -0.17 kcal/mol.
For TCGGACACGTGGGCGT the value was -0.22 kcal/mol; for GCTGTCACGTGGCGTG, 0.07 kcal/mol.
As to ATGTACACGTGGATGG, the “relative binding free energy” value was -0.05 kcal/mol.
As for ATTGACACGTGGTTTG, the “relative binding free energy” value was -0.06 kcal/mol.
For the sequence TGTATCACGTGAAGTA, the “relative binding free energy” value turned out to be 0.24 kcal/mol.
Next, AAGGGCACGTGAAGTA: 0.06 kcal/mol; GGGGGCACGTGTTCTT: -0.09 kcal/mol; AGGGGCACGTGTACTA: -0.24 kcal/mol.
In the case of AACTTCACGTGATTTT, the “relative binding free energy” value turned out to be 0.41 kcal/mol.
Regarding TTATGCACGTGGGTAT, the “relative binding free energy” value was -0.15 kcal/mol.
With TAGTTCACGTGGGAAT, the “relative binding free energy” value amounted to 0.24 kcal/mol.
For TGGTTCACGTGGCAGG the value was 0.15 kcal/mol; for AGTGACACGTGCGGTT, -0.03 kcal/mol.
Next, ATGACCACGTGTTAGG: 0 kcal/mol.
For CATATCACGTGAGTTT the value was 0.24 kcal/mol; for GGAGTCACGTGCTGAG, 0.08 kcal/mol; for TAGATCACGTGGTGGA, 0.08 kcal/mol.
In the case of AAGAGCACGTGTACGT, the “relative binding free energy” value is 0.01 kcal/mol.

Values taken from the BET-seq Pho4 binding data (Le et al. 2018).
